# Assay results: paper PMC12040169 (PLOS Biology, 2025)
# Some of the results follow.
# Test system: T1, C. trachomatis L2/434/Bu expressing GFP (CTL2-GFP)
# T1 construct: L2/434/Bu GFP intracellular growth in HeLa cells
# Set-up: species or system HeLa; C. trachomatis total inclusion area by high-content imaging, normalised to DMSO
# Conditions: total inclusion area; 28.5 h, 10 µM; inhibitor
# How it was run: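 Host cell viability was gauged from Hoechst-stained nuclei counts, while chlamydial growth was taken from total inclusion area and inclusion number per well. Cells were fixed and imaged by high-content microscopy once bulk GFP and resorufin fluorescence had been measured.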
row,Compound,% of control remaining
1,O=C(CSc1ccc2nnc(-c3ccccc3)n2n1)NCC1CCCO1 (stereo not shown) [CBK287515],85.9368
2,O=C(c1cccnc1)C1CCN(C(=O)CC2CC3CCC2C3)CC1 (stereo not shown) [CBK283530],96.1332
3,CCOc1cc(OCC)cc(C(=O)N2CCC3(CC2)CC(=O)c2ccc(N)cc2O3)c1 [CBK168018],10.3876
4,O=C(O)CC1S/C(=N/N=C/c2cn(Cc3ccccc3)c3ccccc23)NC1=O (stereo not shown) [CBK264466],111.19
5,Cc1nn(CCC#N)c(C)c1CCC(=O)NCc1ccccn1 [CBK305693],88.46
6,COc1cc(OC)c2c(c1)OC1(CCN(C(=O)c3cnc(C)cn3)CC1)CC2=O [CBK156503],100.975
7,O=C(NC(=S)N1CCN(c2ccc([N+](=O)[O-])c(N3CCOCC3)c2)CC1)c1cc2ccccc2o1 [CBK268335],112.811
8,CCN(CC)C(=O)[C@@H]1CCCN1c1nc(O)cc(C(F)(F)F)n1 [CBK002867],96.5894
9,O=C(O)Cc1sc(Nc2ccccc2)nc1-c1ccccc1 [CBK286775],58.6318
10,O=C(Cc1ccccc1)N1CCN(C(=O)c2ccco2)CC1 [CBK068325],110.875
11,CN(C)c1cccc(-c2nc(-c3cccs3)cnc2N)c1 [CBK063979],94.4285
12,Cc1nn(C)cc1CN(Cc1cccc(F)c1)CC1CCCO1 (stereo not shown) [CBK283013],95.2013
13,FC(F)(F)c1ccc(N2CCNCC2)nc1OCc1ccc2c(c1)OCCO2 [CBK003994A],29.9028
14,CCC(=O)NCc1csc(-c2ccccc2)n1 [CBK092344],111.872
15,COc1csc(C(=O)Nc2ncn(CC(=O)N3CCCCCC3)n2)c1 [CBK304463],38.6317
16,CC[C@H](Cn1c(=O)oc2ccccc21)NC(=O)c1ccco1 [CBK284541],66.7261
17,Cc1ccc(S(=O)(=O)N2Cc3ccccc3CC2C(=O)Nc2sc3c(c2C#N)CCCC3)cc1 (stereo not shown) [CBK266313],108.442
18,FC(F)(F)c1ccc(CN2CCN(c3nccnc3OCC3COc4ccccc4O3)CC2)cc1 (stereo not shown) [CBK082789T],59.459
19,O=S(=O)(Nc1ccc2cc(Br)cnc2n1)c1cccc2nsnc12 [CBK073894],74.3356
20,CCc1nc2c(OCC(=O)N3CCOCC3)cccn2c1N(C)C(=O)c1ccco1 [CBK147436],86.9005

row,Compound,% of control remaining
1,CC(Cn1cc(Cl)cn1)C(=O)NCCN(C)C1CCCCC1 (stereo not shown) [CBK282041],87.0691
2,CCN(Cc1ccccc1)C(=O)NCc1cnc(C)cn1 [CBK155218],93.833
3,Cc1nnc(SCC(=O)N/N=C/c2ccc(-c3ccc(Br)cc3)o2)n1-c1ccccc1 [CBK262769],120.673
4,CC1(C)COC(=O)N1C1CCN(C(=O)CCS/C=C\c2ccccc2)CC1 [CBK045134],104.502
5,CCc1nc2ccc(C(=O)NC3=NC(=O)CS3)cn2c1N(CC)C(C)=O [CBK145839],125.342
6,c1ccc2sc(-n3cncn3)nc2c1 [CBK027022],94.1829
7,COc1cc(NC(=O)CCc2ccccc2)nc(OC)n1 [CBK072282],82.5509
8,CN1CCCCC/C1=N/C(=S)CN1CCCC1=S [CBK009052],81.1795
9,O=C(NC(c1ccccc1)c1ccco1)C1CCN(C(=S)NCCc2ccccc2)CC1 (stereo not shown) [CBK060412],102.459
10,Cc1cccc(NC(=O)CN2C(=O)S/C(=C\c3cc(C)n(-c4cc(C)ccn4)c3C)C2=O)c1 [CBK264671],97.1306
11,CCc1nn(CCC(C)O)c(=O)c2cc3sc(C)cc3n12 (stereo not shown) [CBK282869],118.924
12,Cc1nn(C(C)CC(=O)NCc2ccco2)c(C)c1Br (stereo not shown) [CBK269797],78.1758
13,FC(F)(F)c1nc2ccccc2nc1SCc1ccco1 [CBK107201],89.2663
14,CS(=O)(=O)c1cccc(S(=O)(=O)N2CCN(Cc3ccccc3)CC2)c1 [CBK269747],86.9371
15,COCCN(C(=O)CCC(=O)NCCc1ccccc1)C1CCN(C)CC1 [CBK014576],90.3472
16,COC(=O)c1ccsc1NS(=O)(=O)c1ccc(Oc2ccccc2)cc1 [CBK039064],63.5403
17,O=C(Nc1ccc(F)c(F)c1)c1cnc2sccn2c1=O [CBK287450],95.0578
18,CCC1CNCCN1c1nccnc1OCCOc1cccnc1 (stereo not shown) [CBK001559F],78.2026
19,O=C(NCc1c(Cl)cccc1Cl)N1CCCC(CO)C1 (stereo not shown) [CBK156054],71.8867
20,CC(=O)c1sc2nc(C)cc(C)c2c1N [CBK131882],110.853
